In the RNAGym collection of RNA variant scans (doi:10.7554/elife.90254):
Read counts are not given, so values of variants with three or more changes are uncertain.

B1: LINE1-mini (parent)
chain: GGCAGAGCUCAACACAGCGUGGCAAAGUGGCUGUGGCUAGACUGCC

Variants of: B1
Test: self-cleavage, relative activity (ratio to wild type); higher = more cleavage; in vitro, sequencing; the parent is a self-cleaving ribozyme

Row | Variant | self-cleavage
1 | GGCAGCCCUAAACAUAGCGUGGCAAAAUGGCUGUGGCUAGACUGCC [A6C G7C C10A C15U G27A] | 0.01
2 | GGCAGCCCUCAACACACCGUGGCAAAGUGGCUGUGGCUAGCCUGCC [A6C G7C G17C A41C] | 0.02
3 | GGCAGCCCUCAACACAGCGUGGCAAAAUGGCUGUGGCUAGACUGCC [A6C G7C G27A] | 0.12
4 | GGCAGCUAUCAACACAGCGUGGCAAAGUGGCUGUGGCUAGACUGCC [A6C G7U C8A] | 0
5 | GGCAGCUCUUAUCACAGCGUGGCAAUGUGGCUGUGGGUAGACUGCC [A6C G7U C10U A12U A26U C37G] | 0
6 | GGCAGCUCUCAACACAACGUGGCAAAGUGGCUGUGGUUAGACUGCC [A6C G7U G17A C37U] | 0.06
7 | GGCAGCUCUCAACACAGCGUGGCAAACUGGCUGUGGCUAGACUGCC [A6C G7U G27C] | 0.06
8 | GGCAGCUCUCAACACAGCGUGGCAAAGUAGCUGUGGCUUGACUGCC [A6C G7U G29A A39U] | 0.3
9 | GGCAGCUCUCAACACAGCGUGGCAAAGUGGCUGUGUCUAGACUGCC [A6C G7U G36U] | 0.58
10 | GGCAGCUCUCAACACAGCGUGGCAAAGAGGCUGUGGCUAGACUGCC [A6C G7U U28A] | 0.09
11 | GGCAGCGCUCAACACACCGUGGCUACGUGGCUGUGGCUAGACUGCC [A6C G17C A24U A26C] | 0.7
12 | GGCAGCGCUCAACACACCAUGGCAAAGUGACUGUGGCUAGACUGCC [A6C G17C G19A G30A] | 0.87
13 | GGCAGCGCUCAACACACCGUGACAAAGUGGCUGUGGCUGGACUGCC [A6C G17C G22A A39G] | 0.03
14 | GGCAGCGCUCAACACAUAAUGGCAAAGUGGCUGUGGCUAGACUGCC [A6C G17U C18A G19A] | 0.1
15 | GGCAGCGCUCAACACAUCGUAGCAAAGUGGCUUUGGCUAGACUGCC [A6C G17U G21A G33U] | 0.11
16 | GGCAGCGCUCAACACAUCGUGGCAAAGUGGCUGUGGCUAGACUUCC [A6C G17U G44U] | 0.03
17 | GGCAGCGCUCAACACAGCAUGGCAAAGUGGCUGUGGCUAGACUGGC [A6C G19A C45G] | 0.35
18 | GGCAGCGCUCAACACAGCAUGGCAAAGUGGCUAUGCCUAGACUGCC [A6C G19A G33A G36C] | 0.11
19 | GGCAGCGCUCAACACAGCAUGGCAAAGUGGCUGCGGCUAGACUGCC [A6C G19A U34C] | 0.11

Row | Variant | self-cleavage
20 | GGCAGCGCUCAACACAGCCUGGCAAAGUGGCUGUGUCUAGACUGCC [A6C G19C G36U] | 0.16
21 | GGCAGCGCUCAACACAGCUUGGCAAAGUCGCAGUGGCUAGACUGCC [A6C G19U G29C U32A] | 0.09
22 | GGCAGCGCUCAACACAGCGUAGAAAAGUGGUUGUGGCUAAACAGCU [A6C G21A C23A C31U G40A U43A C46U] | 0.18
23 | GGCAGCGCUCAACACAGCGUAGAAAAAUGGCUGUGGCUAGACUGCA [A6C G21A C23A G27A C46A] | 0.1
24 | GGCAGCGCUCAACACAGCGUUUUAAAGUGGCUGUGGCUAGACUGCC [A6C G21U G22U C23U] | 0.87
25 | GGCAGCGCUCAACACAGCGUUGCAAAGUGGCUGUGGCUAAACUGCC [A6C G21U G40A] | 0.12
26 | GGCAGCGCUCAACACAGCGUUGCAAAGUGGCUGAGGCCAGACUGAC [A6C G21U U34A U38C C45A] | 0.01
27 | GGCAGCGCUCAACACAGCGUGACACAGUGGCUGUGGCUAGAUUGCC [A6C G22A A25C C42U] | 0.16
28 | GGCAGCGCUCAACACAGCGUGAUAAAGUGGCUGUGGCUAGACGCCC [A6C G22A C23U U43G G44C] | 0.24
29 | GGCAGCGCUCAACACAGCGUGACAAAGUGGAUCUGGCUAGACUGCC [A6C G22A C31A G33C] | 0.02
30 | GGCAGCGCUCAACACAGCGUGCCAAAGUGGCCGUGGCUAGACUGCC [A6C G22C U32C] | 0.02
31 | GGCAGCGCUCAACACAGCGUGUCCAAGUGGUUGUGGCCAGACUGCC [A6C G22U A24C C31U U38C] | 0.06
32 | GGCAGCGCUCAACACAGCGUGUCAAAGCGGCUGUGGCUAGACUCCC [A6C G22U U28C G44C] | 0.25
33 | GGCAGCGCUCAACACAGCGUGGCAAAAUGGCUGUGGCUGGACUGCC [A6C G27A A39G] | 0.12
34 | GGCAGCGCUCAACACAGCGUGGCAAAAUGGAUGUGGCUAGACAGCC [A6C G27A C31A U43A] | 0
35 | GGCAGCGCUCAACACAGCGUGGCAAAAUCGCUGUGUCAACACUGCC [A6C G27A G29C G36U U38A G40C] | 0.01
36 | GGCAGCGCUCAACACAGCGUGGCAAAAUGGCUGUAGCUAGACUGCC [A6C G27A G35A] | 0.4
37 | GGCAGCGCUCAACACAGCGUGGCAAAAUGGCUGUGGCAAGACUGCC [A6C G27A U38A] | 0.27
38 | GGCAGCGCUCAACACAGCGUGGCAAAGUAGCUGUGGCUGGGCUGCC [A6C G29A A39G A41G] | 0.02

Row | Variant | self-cleavage
39 | GGCAGCGCUCAACACAGCGUGGCAAAGUAGCUGUGGUUAGACUGCC [A6C G29A C37U] | 0.06
40 | GGCAGCGCUCAACACAGCGUGGCAAAGUCCCUGUGGCUAGACUGCA [A6C G29C G30C C46A] | 0.02
41 | GGCAGCGCUCAACACAGCGUGGCAAAGUCGCUCUGGCUAGCCUACC [A6C G29C G33C A41C G44A] | 0.03
42 | GGCAGCGCUCAACACAGCGUGGCAAAGUUGCUGUGGCUUGACUGCC [A6C G29U A39U] | 0.95
43 | GGCAGCGCUCAACACAGCGUGGCAAAGUUGCUGAGGCUAGACUGCC [A6C G29U U34A] | 0.27
44 | GGCAGCGCUCAACACAGCGUGGCAAAGUGAUUGUGGCUAGACUGCC [A6C G30A C31U] | 0.1
45 | GGCAGCGCUCAACACAGCGUGGCAAAGUGACUUUGGCUAGACUGUC [A6C G30A G33U C45U] | 0.06
46 | GGCAGCGCUCAACACAGCGUGGCAAAGUGCGUGUCGCUAGCCUGCC [A6C G30C C31G G35C A41C] | 0.04
47 | GGCAGCGCUCAACACAGCGUGGCAAAGUGGCUAUGGCUAGACUGGU [A6C G33A C45G C46U] | 0.05
48 | GGCAGCGCUCAACACAGCGUGGCAAAGUGGCUCUGGCUUGACUGUC [A6C G33C A39U C45U] | 0.03
49 | GGCAGCGCUCAACACAGCGUGGCAAAGUGGCUUUGGUUAGACUGCC [A6C G33U C37U] | 0.06
50 | GGCAGCGCUCAACACAGCGUGGCAAAGUGGCUGUUGCUAGACUGCG [A6C G35U C46G] | 0.07
51 | GGCAGCGCUCAACACAGCGUGGCAAAGUGGCUGUGACUAGACUGUC [A6C G36A C45U] | 0.03
52 | GGCAGCGCUCAACACAGCGUGGCAAAGUGGCUGUGUAUAUACUGCA [A6C G36U C37A G40U C46A] | 0.05
53 | GGCAGCGCUCAACACAGCGUGGCAAAGUGGCUGUGGCUACACCGCC [A6C G40C U43C] | 0.06
54 | GGCAGCGCACAACACAGUGAGCCAAAGUGGCUGUGGGUAAACUGCC [A6C U9A C18U U20A G22C C37G G40A] | 0.01
55 | GGCAGCGCACAACACAGCGUGGCAAAGUGGCUGUGGCUAUACUGCC [A6C U9A G40U] | 0.07
56 | GGCAGCGCCCAACACAGCGUGGCACAGUGGCUGUGGCGGGACUGCC [A6C U9C A25C U38G A39G] | 0.01
